Experimental data as given in the supplement of paper PMC12217912.
Some of the results follow. The full chains were built here from the parent and the listed change. Values near 0.05 are background.

B1: TEV protease; numbered along this chain (parent)
chain: MGESLFKGPRDYNPISSSICHLTNESDGHTTSLYGIGFGPFIITNKHLFRRNNGTLVVQSLHGVFKVKDTTTLQQHLVDGRDMIIIRMPKDFPPFPQKLKFREPQREERICLVTTNFQTKSMSSMVSDTSCTFPSGDGIFWKHWIQTKDGQCGSPLVSTRDGFIVGIHSASNFTNTNNYFTSVPKNFMELLTNQEAQQWVSGWRLNADSVLWGGHKVFMVKPEEPFQPVKEATQL

Variants of: B1
Assay: raw area under fraction-flipped curve 0-4 h after induction (AUC4h, not background-subtracted), DNA-recorder readout of cleavage of the substrate (dimensionless); higher = more cleavage of the substrate by the protease variant
Conditions: temperature: 34 °C; time window: 0-4 h after rhamnose induction
Protocol: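 In vivo DNA recorder in E. coli TOP10(DE3) ΔrhaA at 34 °C. Each TEVp single-site mutant (parent TEVp 0) is paired with a single-site variant of the 7-mer TEVs (canonical ENLYFQ|S). The substrate sits between flexible linkers in a Bxb1-sfGFP-TEVs-SsrA fusion, so cleavage stabilises Bxb1 and speeds flipping of a recombination array, read by NGS. The value is the raw area under the fraction-flipped curve over 0-4 h after rhamnose induction (AUC4h), with ≥20 reads per time point. It is not background-subtracted; inactive controls average about 0.047.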
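Also: Bxb1 expression induced with 0.2% (w/v) L-rhamnose at OD600 near 0.5, cultures sampled hourly, flipped fraction per protease–substrate barcode pair counted by paired-end Illumina sequencing.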

Row | Variant | area with substrate ENLYAQS | area with substrate ENLYCQS | area with substrate ENLYDQS | area with substrate ENLYEQS | area with substrate ENLYIQS | area with substrate ENLYMQS | area with substrate ENLYNQS | area with substrate ENLYPQS | area with substrate ENLYQQS | area with substrate ENLYRQS | area with substrate ENLYSQS | area with substrate ENLYTQS | area with substrate ENLYWQS | area with substrate ENLYYQS | area with substrate ENLYGQS | area with substrate ENLYHQS | area with substrate ENLYKQS | area with substrate ENLYLQS | area with substrate ENLYVQS
1 | MGESLFKGPRDYNPISSSICHLTNESDGHTTSLYGIGFGPFIITNKHLFRRNNGTLVVQSLHGVFKVKDTTTLQQHLVDGRDMIIIRMPKDFPPFPQKLKFREPQREERICLVTTNFQTKSMSSMVSDTSCTFPSGDGIFWKHWIQTKDGQCGSPDVSTRDGFIVGIHSASNFTNTNNYFTSVPKNFMELLTNQEAQQWVSGWRLNADSVLWGGHKVFMVKPEEPFQPVKEATQL [L156D] | 0.0451 | 0.048 | 0.0549 | 0.0565 | 0.0489 | 0.0608 | 0.0547 | 0.0667 | 0.0478 | 0.058 | 0.0551 | 0.061 | 0.0605 | 0.0457 | – | – | – | – | –
2 | MGESLFKGPRDYNPISSSICHLTNESDGHTTSLYGIGFGPFIITNKHLFRRNNGTLVVQSLHGVFKVKDTTTLQQHLVDGRDMIIIRMPKDFPPFPQKLKFREPQREERICLVTTNFQTKSMSSMVSDTSCTFPSGDGIFWKHWIQTKDGQCGSPLVSTRDGFIVGIHSASNFTNTNNYFTSVPKNFMELLTNQEAQQWVSGWRLNADSVLWGGHKVFMAKPEEPFQPVKEATQL [V220A] | 0.0792 | 0.0827 | 0.0591 | 0.075 | 0.136 | 0.0897 | 0.0696 | 0.0709 | 0.0765 | 0.0603 | – | 0.0993 | 0.108 | 0.0604 | 0.0497 | 0.0751 | 0.0641 | 0.0936 | 0.145
3 | MGESLFKGPRDYNPISSSICHLTNESDGHTTSLYGIGFGPFIITNKHLFRRNNGTLVVQSLHGVFKVKDTTTLQQHLVDGRDMIIIRMPKDFPPFPIKLKFREPQREERICLVTTNFQTKSMSSMVSDTSCTFPSGDGIFWKHWIQTKDGQCGSPLVSTRDGFIVGIHSASNFTNTNNYFTSVPKNFMELLTNQEAQQWVSGWRLNADSVLWGGHKVFMVKPEEPFQPVKEATQL [Q97I] | 0.0707 | – | – | – | – | 0.0578 | 0.071 | 0.0757 | 0.0514 | – | – | – | – | – | 0.0853 | – | 0.0559 | – | 0.103
4 | MGESLFKGPRDYNPISSSICHLTNESDGHTTSLYGIGFGPFIITNKHLFRRNNGTLVVQSLHGVFKVKDTTTLQQHLVDGRDMIIIRMPKDFPPFPQKLKFREPQREERICLVTTNFQTKSMSSMVSDTSCTFPSGDGMFWKHWIQTKDGQCGSPLVSTRDGFIVGIHSASNFTNTNNYFTSVPKNFMELLTNQEAQQWVSGWRLNADSVLWGGHKVFMVKPEEPFQPVKEATQL [I139M] | 0.0601 | 0.0813 | 0.0762 | 0.06 | 0.108 | 0.0722 | 0.0675 | 0.0727 | – | 0.0582 | 0.0799 | – | 0.0833 | 0.066 | 0.0577 | 0.0755 | 0.0437 | – | 0.13
5 | MGESLFKGPRDYNPISSSECHLTNESDGHTTSLYGIGFGPFIITNKHLFRRNNGTLVVQSLHGVFKVKDTTTLQQHLVDGRDMIIIRMPKDFPPFPQKLKFREPQREERICLVTTNFQTKSMSSMVSDTSCTFPSGDGIFWKHWIQTKDGQCGSPLVSTRDGFIVGIHSASNFTNTNNYFTSVPKNFMELLTNQEAQQWVSGWRLNADSVLWGGHKVFMVKPEEPFQPVKEATQL [I19E] | 0.0361 | – | 0.0421 | 0.0439 | – | 0.0521 | 0.0489 | 0.0587 | 0.047 | – | – | – | 0.0472 | – | 0.0515 | 0.0404 | 0.051 | 0.0531 | –
6 | MGESLFKGPRDYNPISSSICHLTNESDGHTTSLYGIGFGPFIITNKHLFRRNNGTLVVQSLHGVFKVKDTTTLQQHLVDGRDMIIIRMPKDFPPFPQKLKFREPQREERICLVTTNFQTKSMSSMVSDTSCTFPSGDGIFWKHWIQTKDGQCGSPLVSTRDGFIVGIHSASNFTYTNNYFTSVPKNFMELLTNQEAQQWVSGWRLNADSVLWGGHKVFMVKPEEPFQPVKEATQL [N175Y] | 0.0746 | – | 0.0575 | 0.0547 | – | – | 0.0605 | 0.0835 | 0.0623 | 0.0598 | 0.0752 | – | 0.0707 | 0.0673 | 0.0622 | 0.0572 | – | – | 0.0967
7 | MGESLFKGPRDYNPISSSICHLTNESDGHTTSLYGIGFGPFIITNKHLFRRNNGTLVVQSLHGVFKVKDTTTLQQHLVDGRDMIIIRMPKDFPPFPQKLKFREPQREERICLVTTNFQTKSMSSMVSDTSCTFPSGDGIFWKHWIQTKDGQCGSPLVSTRDGFIVGIHSASNFTNTNNYFTSEPKNFMELLTNQEAQQWVSGWRLNADSVLWGGHKVFMVKPEEPFQPVKEATQL [V183E] | 0.0587 | – | 0.0475 | 0.0535 | 0.0411 | 0.044 | – | 0.0441 | 0.0472 | 0.0464 | 0.0416 | 0.0486 | – | 0.0523 | – | 0.0554 | – | – | –
8 | MGESLFKGPRDYNPISSSICHLTNESDRHTTSLYGIGFGPFIITNKHLFRRNNGTLVVQSLHGVFKVKDTTTLQQHLVDGRDMIIIRMPKDFPPFPQKLKFREPQREERICLVTTNFQTKSMSSMVSDTSCTFPSGDGIFWKHWIQTKDGQCGSPLVSTRDGFIVGIHSASNFTNTNNYFTSVPKNFMELLTNQEAQQWVSGWRLNADSVLWGGHKVFMVKPEEPFQPVKEATQL [G28R] | 0.062 | – | 0.0667 | 0.0662 | 0.115 | 0.0739 | 0.0383 | 0.0549 | – | 0.0582 | – | – | 0.0717 | – | 0.0577 | 0.0635 | 0.0557 | – | 0.133
9 | MGESLFKGPRDYNPYSSSICHLTNESDGHTTSLYGIGFGPFIITNKHLFRRNNGTLVVQSLHGVFKVKDTTTLQQHLVDGRDMIIIRMPKDFPPFPQKLKFREPQREERICLVTTNFQTKSMSSMVSDTSCTFPSGDGIFWKHWIQTKDGQCGSPLVSTRDGFIVGIHSASNFTNTNNYFTSVPKNFMELLTNQEAQQWVSGWRLNADSVLWGGHKVFMVKPEEPFQPVKEATQL [I15Y] | 0.0501 | – | 0.0503 | 0.0663 | – | 0.0769 | 0.0641 | 0.0712 | 0.0596 | 0.0568 | 0.0647 | – | 0.0664 | 0.0666 | 0.0653 | 0.0834 | 0.101 | – | 0.112
